Target: T1, recombinant monomeric CD123 ectodomain (ECD) with an affinity tag on the C-terminus (UniProt P26951 19-305)
T1 construct: extracellular domain; also called CD123 ECD; extracellular domain of CD123
T1 sequence (looked up): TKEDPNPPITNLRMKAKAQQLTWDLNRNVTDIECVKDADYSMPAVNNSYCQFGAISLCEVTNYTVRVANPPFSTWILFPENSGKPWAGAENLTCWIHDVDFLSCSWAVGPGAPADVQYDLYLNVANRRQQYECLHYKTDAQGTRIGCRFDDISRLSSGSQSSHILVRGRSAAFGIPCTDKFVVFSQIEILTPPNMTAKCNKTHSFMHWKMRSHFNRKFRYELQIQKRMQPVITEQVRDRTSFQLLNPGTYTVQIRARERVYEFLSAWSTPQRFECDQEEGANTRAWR
Assay: SPR (Biacore T200), bispecific captured by anti-human Fc F(ab')2, CD123 ECD 3-48 nM as analyte, 25 °C, 1:1 model

- Kd: 2.7 nM
- koff: 0.000472 s⁻¹
- kon: 172000 M⁻¹ s⁻¹
B1: OMT1 VLVH x TSC456 scFv-Fc-scFv TRI130 (bispecific antibody)
chain: [about 100 residues skipped]TFGGGTKVEIKGGGGSGGGGSGGGGSGGGGSEVQLLESGGGLVQPGGSLRLSCAASGFTFSSYGMSWVRQAPGKGLEGVSAISGSGGSTYYADSVKGRFTISRDNSKNTLYLQMNSLRAEDTAVYYCAKEKLRYFDWLSDAFDIWGQGTMVTVSSSEPKSSDKTHTCPPCPAPEAAGAPSVFLFPPKPKDTLMISRTPEVTCVVVDVSHEDPEVKFNWYVDGVEVHNAKTKPREEQYNSTYRVVSVLTVLHQDWLNGKEYKCAVSNKALPAPIEKTISKAKGQPREPQVYTLPPSRDELTKNQVSLTCLVKGFYPSDIAVEWESNGQPENNYKTTPPVLDSDGSFFLYSKLTVDKSRWQQGNVFSCSVMHEALHNHYTQKSLSLSPGSGGGGSGGGGSGGGGSPSQVQLVQSGPEVKKPGSSVKVSCKASGYTFSRSTMHWVRQAPGQGLEWIGYINPSSAYTNYNQKFKDRVTITADKSTSTAYMELSSLRSEDTAVYYCARPQVHYDYNGFPYWGQGTLVTVSSGGGGSGGGGSGGGGSGGGGSDIQMTQSPSTLSASVGDRVTMTCSASSSVSYMNWYQQKPGKAPKRWIYDSSKLASGVPSRFSGSGSGTDYTLTISSLQPDDFATYYCQQWSRNPPTFGGGTKVEIKRS
notes: Single-chain scFv-Fc-scFv, anti-CD123 (OMT1, VL-VH) x anti-CD3ε (TSC456)
